PubChem BioAssay AID652104 (National Center for Advancing Translational Sciences (NCATS), 2013)
About 7,200 (1.8%) of roughly 410,000 compounds were called active. Inconclusive results, whose numbers are uncertain, are shown with a selection of clear calls. Calls follow the shape of the dose curve; as a rule, active = well fitted activation curve with a large enough effect; inconclusive = small, poorly fitted or top-dose-only effect, or another doubt; inactive = no such curve, though single readings can be large or run the other way. Potencies of inconclusive entries are left out as doubtful fits.

assay: qHTS of TDP-43 Inhibitors; conditions: TDP-43 expressing yeast growth rescue, BacTiter-Glo, 24 h; growth rescue (activation): at 46.1 µM (top of the series) unless noted; also: nearly all actives have a fitted effect of over 50% in size; as to growth rescue (activation): % of control where 0% means no effect
Outline: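 Yeast expressing TDP-43 (pregrown in raffinose, seeded at OD600=0.02 in galactose medium) exposed to compounds 24 hr at 30 deg C. Growth read by BacTiter-Glo luminescence; rescue of toxicity appears as increased signal.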
Potency is read from the fitted curve at half-maximal effect; tags tell the direction and shape of the fitted curve.

| SMILES | Potency | growth rescue (activation) |
| --- | --- | --- |
| S=C(Nc1ccc(Br)cc1)NC1CCCC1 | inconclusive [activator, single point] | – |
| COCC(C)Nc1ncnc2c1cnn2-c1ccc(Cl)cc1 (centres undefined) | inconclusive [activator, partial curve] | – |
| CCOC(=O)N1CCC(N(CCOC)C(=O)Nc2ccc(Cl)c(Cl)c2)CC1 | inconclusive [activator, single point] | – |
| CC(C)NC(=O)C1C(c2ccccc2)=Nc2ccccc2N1C(=O)c1ccc(C(F)(F)F)cc1 (centres undefined) | – | inactive: 3.21% |
| O=C(CSc1n[nH]c(-c2ccccc2Cl)n1)N1CCN(c2ccc(F)cc2)CC1 | inconclusive [activator, single point] | – |
| CCOC(=O)C1CCN(C(=O)c2cc3c(s2)-c2ccccc2OC3)CC1 | inconclusive [activator, single point] | – |
| CC(C)c1nn2c(=O)cc(COC(=O)c3ccc(NC(=O)c4ccccc4Cl)cc3)nc2s1 | inconclusive [activator, single point] | – |
| Cc1c(C(=O)N2CCc3ccccc3C2)oc2ccccc12 | inconclusive [activator, single point] | – |
| Cc1ccc(-n2nc(CO)c(C(=O)NCCO)n2)cc1 | – | inactive: 10.5% |
| CC(=O)Nc1cc(-c2ccccc2N(C)C)cn2c(-c3ccc(F)c(Cl)c3)cnc12 | inconclusive [activator, partial curve] | – |
| Cc1nc2c(C)cccn2c(=O)c1NC(=O)c1ccc2c(c1)OCO2 | inconclusive [activator, partial curve] | – |
| Cc1cc(C)nc(N2N=C(CSc3ccc(Cl)cc3)CC2=O)n1 | inconclusive [activator, single point] | – |
| COc1cc2[nH]c(=O)n(Cc3ccc(C(=O)N4CCN(c5cccc(C)c5C)CC4)cc3)c(=O)c2cc1OC | – | inactive: -22.4% |
| CC(=O)N1CCC(C(=O)OCc2ccc(Cl)cc2)(c2ccccc2)CC1 | inconclusive [activator, single point] | – |
| Clc1ccc(NN(Cc2ccncc2)c2ccc(Cl)cc2)cc1 | inconclusive [activator, single point] | – |
| Cc1cc(C)n2nc(-c3cnn(C)c3C(F)(F)F)c(Cl)c2n1 | inconclusive [activator, partial curve] | – |
| CN(C)S(=O)(=O)Oc1cccc(C(=O)Nc2ccc(Cl)cc2)c1 | active: 22.4 µM | – |
| COc1ccc(-c2[nH]ncc2C(=O)NCc2ccccc2OC)cc1 | – | inactive: 15% |
| c1ccc(OCCOc2ncnc3sccc23)cc1 | inconclusive [activator, single point] | – |
| CCN(c1ccccc1)S(=O)(=O)c1nnc(NC(=O)COc2ccccc2F)s1 | – | inactive: 0% |
| CCc1ccc(CNC(=O)CCc2cn(C)c3ccccc23)cc1 | inconclusive [activator, partial curve] | – |
| CCCCN1C[C@H](C)[C@@H](CC(=O)NC)C1=O | inconclusive [activator, full curve, poor fit] | – |
| CC(=O)Nc1nc(C)c(C(C)=O)s1 | – | inactive: 1.58% |

| SMILES | Potency | growth rescue (activation) |
| --- | --- | --- |
| CC(=O)NC(Cc1ccccc1)C(=O)NC1CCN(C(=O)c2ccc([N+](=O)[O-])cc2)CC1 (centres undefined) | inconclusive [activator, single point] | – |
| Cc1cc(C)c(OCC(=O)Nc2ccc(NC(=O)c3ccco3)cc2)c([N+](=O)[O-])c1 | – | inactive: -1.14% |
| CC(C)C1NC2(C(=O)c3ccccc3C2=O)C2C(=O)N(c3ccc(F)cc3)C(=O)C12 (centres undefined) | – | inactive: 4.97% |
| CCC(C)(C)c1ccc(Oc2cccc(C(=O)O)c2)cc1 | – | inactive: -28.5% |
| S=C(Nc1ccccc1Cl)N(Cc1ccccc1)Cc1ccccn1 | inconclusive [activator, partial curve] | – |
| O=C(c1n[nH]c2ccccc12)N1CCN(S(=O)(=O)c2ccc(Cl)cc2)CC1 | – | inactive: 19.2% |
| COc1nc(Oc2ccc(=O)n(-c3ccccc3)n2)nc(N(C)C)n1 | inconclusive [activator, partial curve] | – |
| O=C(N/N=C/C1C(c2ccccc2)C1(Cl)Cl)c1cccc(Cl)c1 (centres undefined) | – | inactive: -15% |
| COc1ccc(OC)c(NC(=O)CCc2c(C)nc3c(-c4ccccc4)c(C)nn3c2C)c1 | active: 20 µM | – |
| COC(=O)CCNC(=O)c1nn(Cc2ccccc2)c(=O)c2ccccc12 | inconclusive [activator, partial curve] | – |
| Cc1ccnc(SCCn2c(N3CC(C)CC(C)C3)nc3c2c(=O)n(C)c(=O)n3C)n1 (centres undefined) | inconclusive [activator, partial curve] | – |
| COc1ccccc1NC1=C(Cl)C(=O)N(C2CCCCC2)C1=O | inconclusive [activator, single point] | – |
| COc1ccc(S(=O)(=O)N2CCCCC2)cc1NC(=O)CSc1ncnc2ccccc12 | inconclusive [activator, single point] | – |
| Clc1ccc(Sc2ccc(/C=N/n3cnnc3)o2)cc1 | inconclusive [activator, single point] | – |
| COC(=O)N/N=C/c1cc([N+](=O)[O-])cc(Br)c1O | – | inconclusive: -91.2% [activator] |
| COc1cc(C(=O)OC2CC3CCC2(C)C3(C)C)ccc1OC(C)=O (centres undefined) | inconclusive [activator, full curve] | – |
| CCO/N=C(\C)c1c(O)c2ccccc2n(C)c1=O | inconclusive [activator, partial curve] | – |
| COc1ccc(CN2CCN(Cc3cccc(Oc4ccccc4)c3)CC2)c(OC)c1OC | inconclusive [activator, partial curve] | – |
| O=C1c2ccccc2CC1Sc1nnc(-c2ccncc2)o1 (centres undefined) | inconclusive [activator, partial curve] | – |
| COc1ccc(-c2csc(-c3cccs3)n2)c(OC)c1 | inconclusive [activator, single point] | – |
| Cc1ccc(NC(=O)CN(C)C(=O)c2cccnc2Nc2cccc(C(F)(F)F)c2)cc1 | active: 20 µM | – |
| O=C(O)CCC(=O)OCC1CCCCC1 | inconclusive [activator, single point] | – |
| CCCC(C(=O)O)N1C(=O)/C(=C/c2cccn2C)SC1=S (centres undefined) | inconclusive [activator, partial curve] | – |

| SMILES | Potency | growth rescue (activation) |
| --- | --- | --- |
| Cc1ccc(OCC(=O)Nc2ccc3c(c2)OCCO3)cc1C | – | inactive: -12.9% |
| COc1ccc(C(=O)NCCCCc2ccccc2)cc1 | inconclusive [activator, partial curve] | – |
| CCCCOc1ccc(C(=O)NCCN2CCC(n3c(=O)[nH]c4ccccc43)CC2)cc1 | inconclusive [activator, partial curve] | – |
| Fc1ccc(-c2nnc(CN3CCC(c4nc5ccccc5s4)CC3)o2)cc1 | inconclusive [activator, single point] | – |
| CC(=O)NNC(=O)CN1C(=O)/C(=C/c2ccccc2)SC1=S | – | inactive: -4.88% |
| O=c1cc(C(Cl)(Cl)Cl)oc2c1ccc1ccccc12 | inconclusive [activator, partial curve] | – |
| CCOC(=O)CNC(=O)CSc1nnc(Cn2cnc3ccccc32)n1C | inconclusive [activator, partial curve, poor fit] | – |
| O=C(CSc1nc(=O)[nH]c2c1CCCC2)NCc1ccc(Cl)cc1 | – | inactive: 21.5% |
| CCN(CC)S(=O)(=O)c1cnccc1N1CCN(c2cccc(Cl)c2)CC1 | inconclusive [activator, single point] | – |
| COc1ccc(-n2nc(C(=O)NCC(=O)N3CCCC(C)C3)c3ccccc3c2=O)cc1Cl (centres undefined) | inconclusive [activator, single point] | – |
| Cc1c(C(=O)NC2CCN(Cc3ccccc3)C2)oc2c(Cl)cccc12 (centres undefined) | – | inactive: -25.5% |
| CCOc1ccc(OCC(=O)N2CCC3(CC2)CC(=O)c2ccccc2O3)cc1 | inconclusive [activator, partial curve] | – |
| CCC(C)NS(=O)(=O)c1ccc(OC)c(Cl)c1Cl (centres undefined) | inconclusive [activator, single point] | – |
| O=C(Nc1ccc2nn(-c3ccccc3)nc2c1)c1ccc2c(c1)OCO2 | inconclusive [activator, partial curve, poor fit] | – |
| Cc1onc(-c2ccccc2)c1C(=O)N/N=C/c1cn(C)c2ccccc12 | inconclusive [activator, partial curve, poor fit] | – |
| COc1ccc(/C=C/C(=O)c2ccc([N+](=O)[O-])o2)cc1OC | – | inactive: -93.3% |
| Cc1ccc(S(=O)(=O)NCC(c2ccco2)N2CCN(c3ccccc3F)CC2)cc1 (centres undefined) | – | inactive: 17.2% |
| C[C@@]12C(=O)N(Cc3ccco3)CC(=O)N1[C@H]1c3cc(Cl)ccc3OC[C@@H]1[C@@H]2c1ccccc1 | inconclusive [activator, partial curve] | – |
| O=C1C(Cl)=C(N2CCCCCC2)C(=O)N1c1ccccc1Cl | inconclusive [activator, single point] | – |
| CCOCCCNC(=O)c1[nH]c2cc(OC)ccc2c1Sc1ccccc1 | – | inactive: 9.04% |
| CCOC(=O)[C@]12CCCC=C1N(Cc1ccccc1)C(=O)[C@H](CC(=O)N1CCC(c3ccccc3)CC1)C2 | inconclusive [activator, partial curve, poor fit] | – |
| CCCn1nc(NC(=O)c2cccs2)c2cc3cc(OC)ccc3nc21 | inconclusive [activator, partial curve] | – |
| CCCCN(CC)CCCNC(=O)C1CCN(c2nc3ccc(CC)cc3s2)CC1 | – | inactive: 12.9% |
